The record followed here is article PMC7933334, “The methyltransferase SETD2 couples transcription and splicing by engaging mRNA processing factors through its SHI domain” (Nature Communications, 2021).

Experiment [1] deals with T1, Halo-SETD2 1404–2564 (SETD2C) (human) (UniProt Q9BYW2).
T1 sequence: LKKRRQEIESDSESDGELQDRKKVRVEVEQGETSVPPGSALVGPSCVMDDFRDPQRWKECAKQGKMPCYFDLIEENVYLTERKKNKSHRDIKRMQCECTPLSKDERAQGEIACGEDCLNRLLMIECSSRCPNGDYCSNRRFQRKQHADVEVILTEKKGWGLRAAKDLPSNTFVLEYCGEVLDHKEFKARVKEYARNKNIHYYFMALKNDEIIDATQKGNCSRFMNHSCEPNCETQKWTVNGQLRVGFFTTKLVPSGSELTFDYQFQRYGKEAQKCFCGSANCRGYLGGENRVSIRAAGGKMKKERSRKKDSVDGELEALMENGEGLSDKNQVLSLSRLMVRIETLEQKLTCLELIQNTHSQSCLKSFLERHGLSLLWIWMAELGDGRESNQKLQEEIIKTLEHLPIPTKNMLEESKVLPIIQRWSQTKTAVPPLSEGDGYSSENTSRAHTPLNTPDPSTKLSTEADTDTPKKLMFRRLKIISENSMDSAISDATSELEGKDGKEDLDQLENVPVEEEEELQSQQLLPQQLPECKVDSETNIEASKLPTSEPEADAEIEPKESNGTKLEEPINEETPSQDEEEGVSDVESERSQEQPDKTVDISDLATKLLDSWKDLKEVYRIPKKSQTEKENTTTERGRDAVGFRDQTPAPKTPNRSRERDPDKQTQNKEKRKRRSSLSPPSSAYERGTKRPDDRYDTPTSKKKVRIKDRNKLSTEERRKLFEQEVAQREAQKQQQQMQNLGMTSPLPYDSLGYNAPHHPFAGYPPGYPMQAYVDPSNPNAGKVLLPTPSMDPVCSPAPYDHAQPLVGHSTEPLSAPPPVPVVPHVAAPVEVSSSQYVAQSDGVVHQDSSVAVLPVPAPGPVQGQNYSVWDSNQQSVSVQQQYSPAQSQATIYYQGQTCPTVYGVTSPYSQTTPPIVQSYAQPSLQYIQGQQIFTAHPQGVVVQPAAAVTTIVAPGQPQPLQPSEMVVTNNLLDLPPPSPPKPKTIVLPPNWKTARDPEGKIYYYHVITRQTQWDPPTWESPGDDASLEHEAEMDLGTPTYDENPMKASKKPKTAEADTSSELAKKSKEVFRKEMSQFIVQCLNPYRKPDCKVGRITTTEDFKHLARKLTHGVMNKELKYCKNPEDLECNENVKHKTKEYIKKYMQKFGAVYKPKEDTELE
The experiment is described as follows: co-IP; Halo affinity purification of a Halo-tagged bait expressed in 293T (Magne HaloTag beads, AcTEV elution); endogenous partner detected by western blot; lysate with or without RNase where stated. On the technique in general: In western blotting, separated proteins are transferred to a membrane and probed.

Experiment [2] addresses T2, Halo-SETD2CΔ2114–2263 (human) (UniProt Q9BYW2).
T2 sequence: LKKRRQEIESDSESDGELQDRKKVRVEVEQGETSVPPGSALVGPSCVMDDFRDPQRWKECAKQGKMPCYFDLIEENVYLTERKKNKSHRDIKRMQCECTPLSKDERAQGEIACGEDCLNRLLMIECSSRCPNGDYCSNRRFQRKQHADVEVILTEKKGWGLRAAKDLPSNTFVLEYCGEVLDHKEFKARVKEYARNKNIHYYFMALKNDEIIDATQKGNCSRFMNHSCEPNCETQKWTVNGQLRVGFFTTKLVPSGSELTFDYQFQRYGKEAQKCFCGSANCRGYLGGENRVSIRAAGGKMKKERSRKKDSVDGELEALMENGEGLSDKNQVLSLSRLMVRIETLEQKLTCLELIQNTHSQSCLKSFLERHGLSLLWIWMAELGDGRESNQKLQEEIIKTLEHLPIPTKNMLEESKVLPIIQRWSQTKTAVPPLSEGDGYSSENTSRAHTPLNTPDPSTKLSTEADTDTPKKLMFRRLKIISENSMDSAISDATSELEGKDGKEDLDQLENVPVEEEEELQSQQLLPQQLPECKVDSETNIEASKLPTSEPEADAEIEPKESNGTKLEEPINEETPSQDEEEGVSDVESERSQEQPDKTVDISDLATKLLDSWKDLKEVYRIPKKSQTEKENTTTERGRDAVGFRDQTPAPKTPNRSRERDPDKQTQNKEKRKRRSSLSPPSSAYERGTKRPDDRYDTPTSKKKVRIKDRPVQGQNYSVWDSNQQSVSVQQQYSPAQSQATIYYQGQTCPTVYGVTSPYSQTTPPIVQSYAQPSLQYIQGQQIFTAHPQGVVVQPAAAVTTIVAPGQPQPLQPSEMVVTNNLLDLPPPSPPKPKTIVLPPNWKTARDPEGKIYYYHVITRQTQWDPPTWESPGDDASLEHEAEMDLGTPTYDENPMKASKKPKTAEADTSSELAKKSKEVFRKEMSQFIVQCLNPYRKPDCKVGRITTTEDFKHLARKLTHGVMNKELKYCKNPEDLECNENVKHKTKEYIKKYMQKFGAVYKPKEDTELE
The experiment is described as above.

Results are given in words; binding and its absence hold for the method and conditions named. Binding seen in cells or lysates may run through a third protein. Some binding calls cover weakened binding; strength is not graded here.

B1: hnRNP L (endogenous) (protein, UniProt P14866 1-589)
chain: MSRRLLPRAEKRRRRLEQRQQPDEQRRRSGAMVKMAAAGGGGGGGRYYGGGSEGGRAPKRLKTDNAGDQHGGGGGGGGGAGAAGGGGGGENYDDPHKTPASPVVHIRGLIDGVVEADLVEALQEFGPISYVVVMPKKRQALVEFEDVLGACNAVNYAADNQIYIAGHPAFVNYSTSQKISRPGDSDDSRSVNSVLLFTILNPIYSITTDVLYTICNPCGPVQRIVIFRKNGVQAMVEFDSVQSAQRAKASLNGADIYSGCCTLKIEYAKPTRLNVFKNDQDTWDYTNPNLSGQGDPGSNPNKRQRQPPLLGDHPAEYGGPHGGYHSHYHDEGYGPPPPHYEGRRMGPPVGGHRRGPSRYGPQYGHPPPPPPPPEYGPHADSPVLMVYGLDQSKMNCDRVFNVFCLYGNVEKVKFMKSKPGAAMVEMADGYAVDRAITHLNNNFMFGQKLNVCVSKQPAIMPGQSYGLEDGSCSYKDFSESRNNRFSTPEQAAKNRIQHPSNVLHFFNAPLEVTEENFFEICDELGVKRPSSVKVFSGKSERSSSGLLEWESKSDALETLGFLNHYQMKNPNGPYPYTLKLCFSTAQHAS
With B1, the binding result was “binds” in experiment [1] and “no binding” in experiment [2].
